Reference: publication PMC9666535, “Mechanistic investigation of human maturation of Okazaki fragments reveals slow kinetics” (Nature Communications, 2022)

Target: T1, Lig1•PCNA complex prebound on the nick product (Lig1•PCNA•NP) (human, UniProt P18858 1-919; P12004)
T1 construct: DNA Ligase 1 (Lig1) WT, human, tag-free; PCNA WT, human; DNA, RFC, RPA and ATP are present; source: both proteins from E. coli, purified; assembled on PCNA-loaded Alexa647-labeled nick DNA with 3′ ddC (Sub#30); copies: + 3
T1 sequence (P18858 whole entry, chain 1 of 2): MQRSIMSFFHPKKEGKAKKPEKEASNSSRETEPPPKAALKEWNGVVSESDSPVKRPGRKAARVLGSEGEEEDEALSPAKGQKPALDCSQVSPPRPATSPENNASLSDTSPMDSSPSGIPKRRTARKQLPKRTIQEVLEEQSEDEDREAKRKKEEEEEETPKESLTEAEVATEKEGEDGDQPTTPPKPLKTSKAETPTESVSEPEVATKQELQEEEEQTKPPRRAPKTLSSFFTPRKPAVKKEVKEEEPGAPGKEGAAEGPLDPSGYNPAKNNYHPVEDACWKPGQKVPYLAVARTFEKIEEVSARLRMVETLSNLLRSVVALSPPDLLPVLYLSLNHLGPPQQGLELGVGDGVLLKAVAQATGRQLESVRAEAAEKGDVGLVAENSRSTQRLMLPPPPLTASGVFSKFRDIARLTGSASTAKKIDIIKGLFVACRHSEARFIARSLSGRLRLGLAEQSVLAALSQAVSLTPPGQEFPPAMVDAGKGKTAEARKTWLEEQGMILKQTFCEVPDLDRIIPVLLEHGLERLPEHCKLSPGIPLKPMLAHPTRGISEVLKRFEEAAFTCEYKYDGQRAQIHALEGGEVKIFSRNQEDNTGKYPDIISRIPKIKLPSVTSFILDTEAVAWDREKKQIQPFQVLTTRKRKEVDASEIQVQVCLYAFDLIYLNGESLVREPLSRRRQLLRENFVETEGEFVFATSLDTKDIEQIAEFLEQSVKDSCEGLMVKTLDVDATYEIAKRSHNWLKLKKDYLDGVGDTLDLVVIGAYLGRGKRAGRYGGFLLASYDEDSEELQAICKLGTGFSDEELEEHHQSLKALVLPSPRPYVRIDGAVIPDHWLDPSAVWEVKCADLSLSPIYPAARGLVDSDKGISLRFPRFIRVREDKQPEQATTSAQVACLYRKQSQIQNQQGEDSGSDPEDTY
T1 sequence (P12004 whole entry, chain 2 of 2, further chain): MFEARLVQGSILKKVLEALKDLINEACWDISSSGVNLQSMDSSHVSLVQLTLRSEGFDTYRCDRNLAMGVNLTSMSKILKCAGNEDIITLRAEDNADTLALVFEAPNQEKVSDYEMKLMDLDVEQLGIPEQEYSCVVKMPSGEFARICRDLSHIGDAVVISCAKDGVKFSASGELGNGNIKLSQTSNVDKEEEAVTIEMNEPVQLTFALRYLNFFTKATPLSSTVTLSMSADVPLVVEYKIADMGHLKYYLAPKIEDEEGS
Experiment: other fluorescence titration; apparent; FRET from FEN1-Cy3 to Alexa647 on the DNA: Lig1 (500 nM) prebound to PCNA-loaded nick DNA with 3′ ddC (Sub#30), FEN1-Cy3 titrated; rise of Alexa647 emission fitted to a quadratic dependence; 22 °C, 50 mM HEPES-KOH pH 7.5, 100 mM KCl, 10 mM MgCl2, 1 mM ATP
Settings: both partners purified

B1: FEN1 S293C labeled with Cy3 (enzyme)
chain: not shown
modifications: Cy3 maleimide on S293C, final stoichiometry 1:1 Cy3 to FEN1
notes: Flap endonuclease-1 (FEN1), human, S293C; the limits […] are printed for FEN1 WT, of which this is the point mutant; also called FEN1-Cy3; Cy3-labeled FEN1; source: E. coli, purified using the SUMO system; labeled with Cy3 maleimide
Kd: ~20 nM
